PubChem BioAssay AID588342 (National Center for Advancing Translational Sciences (NCATS), 2011)
In all, about 360,000 compounds went through this assay and about 25,000 (6.9%) were called active. The inconclusive results got no clear call from the source; some entries with a clear call stand among them for comparison. Calls follow the shape of the dose curve; as a rule, active = well fitted inhibition curve with a large enough effect; inconclusive = small, poorly fitted or top-dose-only effect; inactive = flat fitted curve, though single readings scatter. Potencies of inconclusive entries are doubtful fits and often do not repeat.

target: Luciferin 4-monooxygenase (Photinus pyralis) (UniProt P08659); test: qHTS profiling assay for firefly luciferase inhibitor/activator using purifed enzyme and Km concentrations of substrates (counterscreen for miR-21 project); conditions: purified FLuc, luminescence inhibition; series mostly up to 57.5 µM; also: nearly all actives have a fitted effect of over 55% in size
Sequence of UniProt P08659 (P08659 whole entry, looked up): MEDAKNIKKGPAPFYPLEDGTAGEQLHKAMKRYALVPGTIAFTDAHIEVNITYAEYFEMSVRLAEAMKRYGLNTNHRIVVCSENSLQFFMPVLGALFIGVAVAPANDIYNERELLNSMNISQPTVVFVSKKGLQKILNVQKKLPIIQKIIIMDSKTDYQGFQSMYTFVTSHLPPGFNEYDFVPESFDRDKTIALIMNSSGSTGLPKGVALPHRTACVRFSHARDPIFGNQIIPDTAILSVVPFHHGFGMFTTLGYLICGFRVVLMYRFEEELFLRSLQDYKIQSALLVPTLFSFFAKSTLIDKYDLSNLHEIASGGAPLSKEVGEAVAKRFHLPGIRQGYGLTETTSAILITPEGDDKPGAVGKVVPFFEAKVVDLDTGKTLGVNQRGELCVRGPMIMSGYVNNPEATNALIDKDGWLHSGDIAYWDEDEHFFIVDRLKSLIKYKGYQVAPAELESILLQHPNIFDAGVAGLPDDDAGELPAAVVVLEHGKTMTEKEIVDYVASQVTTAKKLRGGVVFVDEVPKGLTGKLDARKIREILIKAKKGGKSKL
Procedure, shortened: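 Purified P. pyralis luciferase (10nM final) with 10uM D-luciferin and 10uM ATP (Km levels) in 50mM Tris acetate pH 7.5, 10mM Mg acetate, 0.01% Tween-20, 0.05% BSA; qHTS 6-point titration, ~60 µM downward; luminescence read.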
Potency is read from the fitted curve at half-maximal effect; tags tell the direction and shape of the fitted curve.

| Structure (SMILES) | Potency |
| --- | --- |
| COc1ccccc1C(=O)NNC(=O)c1ccc(Br)cc1 | active: 13.5 µM |
| O=C(c1cc(-c2ccccc2)on1)N1CCN(C(=O)c2ccco2)CC1 | inconclusive: 30.1 µM [inhibitor, partial curve, poor fit] |
| Cc1ccc(/C=C/C(=O)NCc2cccs2)c(C)c1 | active: 6.75 µM |
| CCOC(=O)/C(C#N)=N/Nc1ccccc1C(=O)O | inconclusive: 37.9 µM [inhibitor, single point] |
| O=C(NC(=S)NCC1COc2ccccc2O1)c1ccccc1 (stereo not drawn) | inconclusive: 37.9 µM [inhibitor, partial curve, poor fit] |
| O=C(CSc1nnc(NC(=O)c2ccco2)s1)NC1CCCCC1 | active: 19 µM |
| O=C(O)c1ccc2c(c1)N(Cc1ccc(F)cc1Cl)C(=O)c1ccccc1S2 | inconclusive: 23.9 µM [inhibitor, single point] |
| COc1ccc(-c2cc(C(=O)Nc3cccc(S(=O)(=O)NCc4ccco4)c3)c3ccccc3n2)cc1OC | inconclusive: 12 µM [inhibitor, partial curve] |
| COC(=O)c1cc(C#N)c(N(C)Cc2ccccc2)nc1C | inconclusive: 37.9 µM [inhibitor, partial curve, poor fit] |
| Cc1cccc(C(=O)Nc2cccc3cccnc23)c1 | active: 21.3 µM |
| CCN(CC)c1ccc(/C=C(/C#N)c2nc3ccccc3[nH]2)c(OC(C)C)c1 | active: 2.69 µM |
| COc1ccc(Nc2nc(-c3ccccc3)nc3ccccc23)cc1 | inconclusive: 37.9 µM [inhibitor, single point] |
| Cc1ccc(-n2c(C)nc3oc4ccccc4c(=O)c3c2=O)cc1 | inconclusive: 21.3 µM [inhibitor, partial curve] |
| O=C(Nc1ccc(O)cc1)/C(=C\C=C\c1ccccc1)NC(=O)c1ccccc1 | active: 9.53 µM |
| N#Cc1cn(N2CCCCC2)c(=O)[nH]c1=O | inactive |
| Cc1cccc(-c2nnn3c2nc(NCc2ccccc2)c2ccccc23)c1 | inactive |
| COC(=O)[C@H](CC(C)C)NC(=O)c1cc2c(cn1)[nH]c1ccccc12 | inconclusive: 23.9 µM [inhibitor, single point] |
| CC(=O)CCC(=O)NC1CCCc2c1cnn2-c1ccc(C(C)(C)C)cc1 (stereo not drawn) | inconclusive: 21.3 µM [inhibitor, partial curve] |
| Cc1cc2nccc(-c3ccccn3)n2n1 | inactive |
| COCCn1c(=S)[nH]c2cc(C(=O)N3CCC(C(N)=O)(N4CCCCC4)CC3)ccc2c1=O | inactive |
| Cc1cc(OCC(=O)Nc2ccc(S(=O)(=O)N3CCN(C)CC3)cc2)ccc1Br | inactive |
| O=C(CSc1ncnc2c1oc1ccccc12)c1cccs1 | inconclusive: 1.9 µM [inhibitor, partial curve, poor fit] |
| Cc1ccccc1OCC(=O)Nc1cccc(C(=O)O)c1 | active: 0.0953 µM |
| CCOc1ccc(CNC(=O)c2ccc(NC(=O)N3CCSc4ncccc43)cc2)cc1OC | inactive |

| Structure (SMILES) | Potency |
| --- | --- |
| CC(=O)c1cccc(NC(=O)CN2C(=O)c3cccnc3Sc3ccccc32)c1 | inconclusive: 37.9 µM [inhibitor, partial curve, poor fit] |
| O=C(O)c1ccc(COc2ccccc2Cl)cc1 | active: 21.3 µM |
| COc1ccc(OCc2cc(C(=O)N(Cc3nccn3C)C(C)C)no2)c2ccccc12 | active: 13.5 µM |
| OCc1nc2c(ccc3ccccc32)[nH]1 | inactive |
| O=C(Cc1ccc(F)cc1)Nc1ccc(Cl)cn1 | inconclusive: 21.3 µM [inhibitor, partial curve, poor fit] |
| Cc1nc(C)c(-c2csc(NCCc3ccccc3)n2)s1 | active: 16.9 µM |
| CCc1ccccc1Nc1ncnc2c1cnn2-c1ccc(Cl)cc1 | active: 12 µM |
| O=c1cc[nH]c2c1ccc1c(=O)cc[nH]c12 | inconclusive: 21.3 µM [inhibitor, single point] |
| CC(=O)c1ccc(NC(=O)CSc2nnc(NC(=O)Nc3ccccc3)s2)cc1 | active: 0.478 µM |
| COc1ccc(C(=O)COC(=O)C(CC(C)C)N2C(=O)c3ccccc3C2=O)cc1 (stereo not drawn) | inconclusive: 6.75 µM [inhibitor, partial curve] |
| COC(=O)c1ccccc1NS(=O)(=O)c1c(C)noc1C | inactive |
| O=C(N/N=C/c1ccc(OC(=O)c2ccccc2)cc1)c1cccnc1 | inconclusive: 26.9 µM [inhibitor, partial curve, poor fit] |
| Cc1cc(Br)c(NC(=O)CN2CCCC2)c(Br)c1 | inconclusive: 26.9 µM [inhibitor, single point] |
| Cc1cc(C)c2c(=O)cc(CSc3nnc(-c4ccccc4)n3C)[nH]c2c1 | inactive |
| C/C(=N\OCc1nc2ccccc2c(=O)n1/N=C/c1cc([N+](=O)[O-])ccc1O)c1ccccc1 | active: 23.9 µM |
| COc1ccc(NC(=O)c2ccc3c(=O)n(CC4CCCO4)c(=S)[nH]c3c2)c(OC)c1 (stereo not drawn) | inactive |
| O=C1COc2ccc(C(=O)COC(=O)c3ccc4ccccc4n3)cc2N1 | inactive |
| Cc1ccc(CNc2ccc(O)cc2)cc1 | inconclusive: 23.9 µM [inhibitor, partial curve, poor fit] |
| COc1ccc(/C=C/C(=O)NCc2nc3ccccc3[nH]2)cc1OC | inconclusive: 37.9 µM [inhibitor, partial curve, poor fit] |
| Cn1c(/C(C#N)=C/C2CC=CCC2)nc2ccccc21 (stereo not drawn) | inconclusive: 26.9 µM [inhibitor, partial curve, poor fit] |
| CCN(CC)c1ccc(/C=N/NC(=O)c2cnccn2)cc1 | active: 12 µM |
| CC(C)(C)c1cc(C(C)(C)C)c2oc(=O)c(-c3nc4ccc(C(=O)O)cc4[nH]3)cc2c1 | inconclusive: 30.1 µM [inhibitor, partial curve] |
| Cc1cnc(NC(=O)C2CC=CCC2)s1 (stereo not drawn) | inconclusive: 30.1 µM [inhibitor, partial curve, poor fit] |
| COc1cc(C(=O)Nc2cccc(C)n2)ccc1OCC(=O)N1CCOCC1 | inconclusive: 21.3 µM [inhibitor, partial curve, poor fit] |
